# Several values for one entry are separate records, joined by “and”; a condition that tells them apart may be missing. Identical values can stand only once. Inconclusive means that the source gave no clear call. Such entries were picked first, then a sample of the others. For some assays here: A potency beside an inconclusive call is a rough fit, not a confirmed value. For some assays here: “Side channel” marks fits to a control or component signal instead of the main read-out. Activity calls are given as the source filed them. Unless noted, calls come from the whole dose curve; as a rule, active = well fitted curve in the direction sought with a large enough effect; inconclusive = small, poorly fitted or top-dose-only effect, or another doubt; inactive = no such curve, though single readings can be large; an effect the other way counts as inactive or inconclusive.
# Tests used:
# [1] = AP1 Signaling Pathway (AID 357; active = well fitted curve in either direction with a large enough effect, not every such curve was filed as active; inconclusive = small, poorly fitted or top-dose-only effect, or another doubt;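 note: ME-180 reporter cells stimulated with EGF at its EC50 level; top concentration of the series differs between compounds; % is set by controls: 0 for no effect and ±100 for the full control effect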); conditions: ME-180 AP-1-bla reporter, EGF-induced, beta-lactamase ratio, 5 h
# Summary of the method: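 AP-1-bla ME-180 cells, Opti-MEM + 0.5% dialyzed FBS, plated overnight 37 °C. Cpd titration + EC50 EGF, 5 h 37 °C. CCF4 2.5 h RT; ex 405, em 460/530 ratio → %activity, AC50.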
# [2] = target: Mitogen-activated protein kinase 10 (Mus musculus) (UniProt Q61831); experiment: JNK3 AlphaScreen Assay (AID 530; active = well fitted curve in either direction with a large enough effect, not every such curve was filed as active; inconclusive = small, poorly fitted or top-dose-only effect, or another doubt;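 note: kinase came from lysate of stimulated human HepG2 cells; signal reports phosphorylation of biotinylated GST-cJun 1-79 at Ser73 with 10 µM ATP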; note: potency is the fitted concentration of half-maximal effect; for activity change, negative = inhibition: % is set by controls: 0 for no effect and ±100 for the full control effect); conditions: JNK3 lysate, c-Jun phosphorylation; activity change, negative = inhibition: at 57.1 µM (top of the series)
# Summary of the method: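 qHTS format: compounds tested as titrations against IL-1beta/TNF-alpha-activated HepG2 lysate JNK3 with biotin-GST-cJun substrate and 10 uM ATP at room temperature. Loss of anti-phospho-cJun AlphaScreen signal indicates inhibition.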
# [3] = qHTS Assay for Identification of Small Molecule Agonists for Hypoxia Response Element Signaling Pathway (AID 914; active = well fitted activation curve with a large enough effect in the signal ratio, with a control signal flat, not every such curve was filed as active; inconclusive = small, poorly fitted or top-dose-only effect, or effect the other way, or a change in a side signal; the % refers to the signal ratio; note: potency is the fitted concentration of half-maximal effect; for activation: top concentration of the series differs between compounds; % of control where 0% means no effect); conditions: ME-180 HRE-bla reporter, beta-lactamase ratio, CoCl2, 17 h; activation: active compounds read high
# Summary of the method: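 Compounds in a titration series were added to ME-180 reporter cells alongside an EC50 level of CoCl2. After 17 hours, beta-lactamase activity was read as the 460nm/530nm emission ratio of CCF4, giving AC50 values.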
# [4] = qHTS Assay for Identification of Small Molecule Agonists for Thrombopoietin (TPO) Signaling Pathway (AID 917); conditions: TPO signaling pathway reporter cells, agonist qHTS, stimulated with TPO at its EC50; series mostly up to 38.5 µM; note: potency is the fitted concentration of half-maximal effect
# Summary of the method: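 Murine Ba/F3 cells expressing human TPO receptor and GPIIb-promoter luciferase, IL-3-starved overnight, given compound plus TPO at 26 pM (EC50). After 24 h at 37 C, 5% CO2, luminescence read.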
# [5] = target: Muscarinic acetylcholine receptor M1 (Rattus norvegicus) (UniProt P08482); experiment: qHTS Assay for Antagonists of Acetylcholine Muscarinic M1 Receptor: Kinetic Measurement of Intracellular Calcium Response (AID 943); conditions: M1-expressing cells, kinetic intracellular calcium fluorescence; series mostly up to 35.3 µM; note: nearly all actives have a fitted effect of over 75% in size; note: potency is the fitted concentration of half-maximal effect;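 for activity change, negative = inhibition: Fluo-4 calcium signal as peak divided by basal fluorescence over 4 min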
# Summary of the method: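 Intracellular calcium flux, recorded with Fluo-4 in a kinetic plate reader, served as signal; the response to carbachol at EC80 (100 nM final) was taken as maximal over minimal fluorescence after a 10 min compound pre-incubation in rat M1-CHO cells.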
# [6] = Stat Signaling Pathway (AID 446; active = well fitted curve in either direction with a large enough effect, not every such curve was filed as active; inconclusive = small, poorly fitted or top-dose-only effect, or another doubt;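 note: ME-180 cervical cancer cells given 40 pM IL-6 alongside compound; SIE-controlled beta-lactamase reporter measured as 460/530 nm FRET emission ratio; top concentration of the series differs between compounds; % is set by controls: 0 for no effect and ±100 for the full control effect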); conditions: ME-180 (cervical carcinoma) SIE beta-lactamase reporter, IL-6 stimulated, 5 h; at 38 µM (top of the series)
# Summary of the method: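 IL-6/STAT signaling read in ME-180 cells via an SIE beta-lactamase reporter. Stimulus was 40 pM IL-6 (its AC50) for 5 hrs, so both activation and inhibition register.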
# [7] = Quantitative high throughput screen for delayed death inhibitors of the malarial parasite plastid, 48 hour incubation (AID 488752); conditions: Plasmodium falciparum growth; series mostly up to 28.7 µM; note: nearly all actives have a fitted effect of over 65% in size; note: potency is the fitted concentration of half-maximal effect; for activity change, negative = inhibition: % is set by controls: 0 for no effect and ±100 for the full control effect
# Summary of the method: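 One parasite generation (48 h, 37 C, 5% CO2) of luciferase-reporter P. falciparum in erythrocytes is run with test compound; decreased luminescence indicates inhibited growth.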
# [8] = target: Calcium and integrin-binding protein 1 (Homo sapiens) (UniProt Q99828); experiment: Validation qHTS for Identification of Calcium Integrin Binding protein 1 (CIB1) Competitor (AID 1508618); conditions: CIB1-GST / FITC-alphaIIb peptide fluorescence polarization; series mostly up to 114 µM; note: potency is the fitted concentration of half-maximal effect
# Summary of the method: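 In this qHTS validation, the LOPAC set (up to 114 uM) was tested for blocking CIB1 binding to a fluorescein-tagged alphaIIb peptide, with FP detection at 480/540 nm.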
# [9] = qHTS for differential inhibitors of proliferation of Plasmodium falciparum line W2 (AID 1883); conditions: Potency: Plasmodium falciparum W2 proliferation inhibition; series mostly up to 28.7 µM;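 note: parasites grown with compound for 72 h before lysis and staining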; note: potency is the fitted concentration of half-maximal effect;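 for activity change, negative = inhibition: 0% = vehicle wells and -100% = control inhibitor wells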
# [10] = High Content Imaging Cell-Based qHTS for Inhibitors of the mTORC1 Signaling Pathway in MEF Cells (AID 2667); conditions: series mostly up to 38.3 µM; note: potency is the fitted concentration of half-maximal effect;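 for activity change, negative = inhibition: Tsc2-/- p53-/- MEFs stably re-expressing wild-type Tsc2 exposed 24 h; plate controls were DMSO wells for no effect and rapamycin control wells for full effect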
# Summary of the method: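 WT MEFs (Tsc2-/-, p53-/- re-expressing Tsc2), in DMEM + 10% FBS, were treated with compound for 24 h at 37 C. Cells were then fixed and stained for phospho-rpS6 Ser235/236 with propidium iodide as cell count. Values are % positive cells, with thresholds set against rapamycin-treated cells.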
# [11] = target: Glutathione peroxidase 1 (Homo sapiens) (UniProt P07203); experiment: Primary qHTS Assay for Inhibitors of Recombinant Selenoprotein Glutathione Peroxidase 1 (GPX1) (AID 1845191); conditions: recombinant GPX1, GR-coupled NADPH fluorescence, 15 min; series mostly up to 48.8 µM; note: potency is the fitted concentration of half-maximal effect; nearly all actives have a fitted effect of over 65% in size
# Summary of the method: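 GR-coupled assay: compounds preincubated 30 min at room temperature with GPX1, then reaction started with CHP; final 10 nM GPX1, 1 mM GSH, 0.5 mM CHP, 0.5 mM NADPH, 100 nM GR, 0.01% BSA, pH 7.5 Tris buffer. NADPH fluorescence (340/450 nm) read at 0 and 15 min.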
# [12] = qHTS Validation Assay to Find Inhibitors of Chronic Active B-Cell Receptor Signaling (AID 485345; active = well fitted curve in the direction sought with a large enough effect in the main read-out, with a control signal flat, not every such curve was filed as active; inconclusive = small, poorly fitted or top-dose-only effect, or effect the other way, or a change in a side signal; inactive = no such curve, though single readings can be large or run the other way;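 note: 0% = untreated basal cells and 100% = 10 µM MG-132 proteasome inhibitor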); conditions: ABC-DLBCL cells, chronic BCR signaling reporter; activity change: CBG luciferase, at 46.1 µM (top of the series)
# Summary of the method: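 TMD8 ABC-DLBCL cells stably carrying doxycycline-inducible IkappaBalpha–green luciferase fusion plus unfused red luciferase; compounds 46 uM to 3 nM, 4 h at 37C with doxycycline. Corrected green/red luminescence ratio normalized to 10 uM MG-132 and basal cell wells; curves fitted.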
# [13] = Primary qHTS for inhibitors of nuclear receptor binding SET domain protein 2 (NSD2) in an isogenic RCH-ACV NSD2 p.E1099K mutant (9B) (AID 1645876); conditions: RCH-ACV (leukaemia line) NSD2 E1099K (9B) viability, CellTiter-Glo, 72 h; activity change, negative = viability loss: at 44.9 µM (top of the series) unless noted; series mostly up to 44.9 µM; note: potency is the fitted concentration of half-maximal effect; nearly all actives have a fitted effect of over 70% in size
# CP286 = experiment: qHTS profiling for inhibitors of Plasmodium falciparum proliferation (AID 504749); note: nearly all actives have a fitted effect of over 60% in size; note: potency is the fitted concentration of half-maximal effect;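 for activity, negative = inhibition: 0% = DMSO vehicle and full inhibition = artemisinin control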; conditions: P. falciparum in erythrocytes, SYBR Green DNA, 72 h; series mostly up to 28.7 µM
# Summary of the method: (§1)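 Readout was DNA-dye fluorescence from lysed cultures, ex 485/em 535 nm. Parasitized red cells had grown 72 h with compound; data scaled between 0.29 uM artemisinin and DMSO wells and corrected using vehicle-only plates.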
# PC26 = experiment: as above; conditions: P. falciparum in erythrocytes, SYBR Green DNA, 72 h; series mostly up to 28.7 µM
# Summary of the method: as §1
# Tags give direction and shape of the fitted curve or compound fluorescence and quenching.
# Chain of UniProt P08482 (P08482 whole entry, looked up): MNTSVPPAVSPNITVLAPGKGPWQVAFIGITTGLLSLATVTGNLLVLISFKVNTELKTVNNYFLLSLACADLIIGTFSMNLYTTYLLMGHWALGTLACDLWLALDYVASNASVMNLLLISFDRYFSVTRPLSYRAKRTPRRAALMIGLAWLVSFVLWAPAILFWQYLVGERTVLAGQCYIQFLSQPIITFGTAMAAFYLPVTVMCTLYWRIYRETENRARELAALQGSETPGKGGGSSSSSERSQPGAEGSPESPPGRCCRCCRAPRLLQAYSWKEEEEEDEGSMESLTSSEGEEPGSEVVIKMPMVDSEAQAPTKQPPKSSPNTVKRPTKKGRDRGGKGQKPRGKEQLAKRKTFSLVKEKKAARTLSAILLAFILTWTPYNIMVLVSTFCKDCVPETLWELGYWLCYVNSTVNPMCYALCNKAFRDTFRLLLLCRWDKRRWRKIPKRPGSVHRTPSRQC
# Chain of UniProt P07203 (P07203 whole entry, looked up): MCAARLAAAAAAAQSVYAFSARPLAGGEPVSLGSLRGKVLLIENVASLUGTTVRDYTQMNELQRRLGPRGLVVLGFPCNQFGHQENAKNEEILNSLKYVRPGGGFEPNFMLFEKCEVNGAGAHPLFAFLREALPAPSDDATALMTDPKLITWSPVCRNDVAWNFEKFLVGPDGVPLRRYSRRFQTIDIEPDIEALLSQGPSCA
# Chain of UniProt Q99828 (Q99828 whole entry, looked up): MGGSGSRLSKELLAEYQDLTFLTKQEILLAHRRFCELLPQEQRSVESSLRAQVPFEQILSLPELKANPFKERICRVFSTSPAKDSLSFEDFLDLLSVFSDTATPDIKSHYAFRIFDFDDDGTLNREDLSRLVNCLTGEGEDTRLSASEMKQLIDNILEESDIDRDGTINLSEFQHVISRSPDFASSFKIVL
smiles,measurement,setting,value
Ic1ccc(N2CCN(Cc3c[nH]c4ncccc34)CC2)cc1,"activity change, negative = inhibition",[1]; at 38 µM (top of the series),inconclusive: 31.8% [activator]
same,"activity change, negative = inhibition",[2],inconclusive: 34% [activator]
same,Potency,[3],"inconclusive: 3.16 µM [inhibitor, full curve, poor fit]"
same,Potency,[4],"inconclusive: 2 µM [inhibitor, full curve]"
same,Potency,[5],"inconclusive: 15.8 µM [inhibitor, partial curve, poor fit]"
O=c1[nH]c2cc(C(F)(F)F)ccc2n1-c1cc(C(F)(F)F)ccc1O,"activity, negative = inhibition",[6],inconclusive: 61.8% [activator]
same,Potency,[2],"inconclusive: 39.8 µM [activator, single point]"
same,Potency,[4],inactive
same,Potency,[5],inactive
same,Potency,[7],"inconclusive: 18.5 µM [inhibitor, single point]"
same,Potency,[8],"inconclusive: 44.7 µM [inhibitor, partial curve, poor fit]"
COC1=C(OC)C(=O)c2ccccc2C1=O,"activity change, negative = inhibition",[1]; at 38 µM (top of the series),inconclusive: -48.5% [inhibitor]
same,"activity, negative = inhibition",[6],inconclusive: -47.6% [inhibitor]
same,Potency,[2],"inconclusive: 12.6 µM [inhibitor, partial curve]"
same,Potency,[4],"inconclusive: 3.98 µM [inhibitor, full curve]"
same,Potency,[5],"inconclusive: 0.0224 µM [inhibitor, full curve, poor fit]"
same,Potency,[9],active: 11.2 µM
same,Potency,[10],"inconclusive: 26.1 µM [falling, single point]"
OCC1O[C@H]([S-])[C@H](O)[C@@H](O)[C@@H]1O.[Au+] (some centres undefined),Potency,[8],"inconclusive: 89.1 µM [inhibitor, single point]"
same,Potency,[11],"inconclusive: 35.5 µM [inhibitor, single point]"
CC[C@@H](C)[C@H]1O[C@]2(CC[C@H]1C)C[C@@H]1C[C@@H](CC=C(C)[C@@H](O[C@H]3C[C@H](OC)[C@@H](O[C@H]4C[C@H](OC)[C@@H](O)[C@H](C)O4)[C@H](C)O3)[C@@H](C)C=CC=C3CO[C@@H]4[C@H](O)C(C)=C[C@@H](C(=O)O1)[C@]34O)O2,Potency,[10],"inconclusive: 0.0033 µM [activator, full curve, poor fit]"
same,activity change,[12],inconclusive: 38%
O=C1Nc2ccc(I)cc2/C1=C/c1cc(Br)c(O)c(Br)c1,"activity change, negative = inhibition",[1]; at 38 µM (top of the series),inconclusive: -58.2% [inhibitor]
same,"activity, negative = inhibition",[6],inconclusive: -41.9% [inhibitor]
same,Potency,[2],"inconclusive: 7.94 µM [inhibitor, partial curve] and inconclusive: 10 µM [inhibitor, partial curve]"
same,Potency,[3],"inconclusive: 25.1 µM [cytotoxic, side channel, single point]"
same,Potency,[4],inactive
same,activity change,[12],inconclusive: 37.5%
same,Potency,[13],"inconclusive: 7.42 µM [inhibitor, partial curve, poor fit] and inconclusive: 29.1 µM [inhibitor, single point]"
same,Potency,[11],"inconclusive: 29 µM [inhibitor, single point]"
NC(=Nc1ccccc1)NC(=O)c1nc(Cl)c(N)nc1N,"activity, negative = inhibition",[6],inconclusive: 31.2% [activator]
same,Potency,[3],"inconclusive: 2.51 µM [activator, full curve]"
same,Potency,[4],active: 2.51 µM
same,Potency,[5],"inconclusive: 14.1 µM [inhibitor, partial curve, poor fit]"
O=C(O)/C(=C/c1c(C(=O)O)[nH]c2cc(Cl)cc(Cl)c12)c1ccccc1,"activity change, negative = inhibition",[1]; at 38 µM (top of the series),inactive: 1.71%
same,Potency,[9],"inconclusive: 11.2 µM [inhibitor, partial curve]"
same,Potency,[7],"inconclusive: 16.5 µM [inhibitor, single point]"
same,Potency,[8],"inconclusive: 56.2 µM [inhibitor, partial curve]"
O=C(O)C1CN(CCCP(=O)(O)O)CCN1 (centres undefined),Potency,[9],inactive
O=c1[nH]ccc2c(O)cccc12,Potency,[10],inactive
CC1(C)CCC(NC(=O)[C@@H](N)CCC(=O)O)CC1,Potency,[9],inactive
same,Potency,[12],inactive
same,Potency,CP286,inactive
same,Potency,PC26,"inconclusive: 1.51 µM [inhibitor, partial curve, poor fit]"
O=C(CCCCCN1CCN(c2ccccc2-c2ccccc2)CC1)NC1CCCc2ccccc21 (centres undefined),Potency,[10],"inconclusive: 23.3 µM [falling, single point]"
same,Potency,[8],"inconclusive: 25.1 µM [inhibitor, full curve]"
O=C(O)c1cc(=O)c2ccccc2[nH]1,"activity, negative = inhibition",[6],inconclusive: -56.5% [inhibitor]
same,Potency,[5],"inconclusive: 0.0178 µM [inhibitor, full curve, poor fit]"
COc1cccc(OC)c1OCCNCC1COc2ccccc2O1 (centres undefined),Potency,[7],inactive
C=C1C[C@@]23CC[C@H]4[C@@](C)(CCC[C@@]4(C)C(=O)OC4OC(CO)C(O)C(O)C4O)[C@@H]2CC[C@]1(OC1OC(CO)C(O)C(O)C1OC1OC(CO)C(O)C(O)C1O)C3 (some centres undefined),activity change,[12],inconclusive: -41.1%
CN1CCc2ccccc2Cc2[nH]c3ccccc3c2CC1,Potency,[5],"inconclusive: 17.8 µM [inhibitor, partial curve, poor fit]"
same,Potency,[7],"inconclusive: 11.7 µM [inhibitor, single point]"
same,Potency,[8],"inconclusive: 31.6 µM [inhibitor, partial curve, poor fit]"
CC(C)(C=O)Cc1cc(C(C)(C)C)c(O)c(C(C)(C)C)c1,Potency,[2],"inconclusive: 12.6 µM [activator, partial curve, poor fit]"
same,Potency,[3],"inconclusive: 6.31 µM [activator, partial curve]"
same,Potency,[5],inactive
same,activity change,[12],inconclusive: -35.7%
CC(=O)N[C@@H](Cc1c[nH]c2ccccc12)C(=O)OCc1cc(C(F)(F)F)cc(C(F)(F)F)c1,Potency,[4],"inconclusive: 12.6 µM [inhibitor, partial curve, poor fit]"
same,Potency,[5],inactive
same,Potency,[8],"inconclusive: 39.8 µM [inhibitor, full curve]"
NC(C(=O)N[C@@H]1C(=O)N2C(C(=O)O)=C(Cl)CS[C@H]12)c1ccccc1 (some centres undefined),Potency,[9],inactive
same,Potency,[11],"inconclusive: 35.5 µM [inhibitor, single point]"
N[C@@H](Cc1ccc(O)c(I)c1)C(=O)O,"activity change, negative = inhibition",[1]; at 17.2 µM (top of the series),inactive: 9.71%
O=C(Nc1ccccc1)c1cc([N+](=O)[O-])ccc1Cl,"activity change, negative = inhibition",[1]; at 38 µM (top of the series),inconclusive: 32.3% [activator]
same,activation,[3],inconclusive: -37.4%
same,Potency,[4],active: 1.58 µM
same,Potency,[5],"inconclusive: 0.0794 µM [inhibitor, full curve, poor fit]"
N#Cc1cc([N+](=O)[O-])c2sc(C(N)=O)[n+]([O-])c2c1,Potency,[13],active: 8.2 µM
CCCCCCCC/C=C\CCCCCCCC(=O)NCCO,"activity change, negative = inhibition",[1]; at 38 µM (top of the series),inconclusive: 34.4% [activator]
same,"activity, negative = inhibition",[6],inconclusive: -30.1% [inhibitor]
same,Potency,[7],active: 2.62 µM
same,Potency,[8],inactive
CCCCCC[C@@H]([C@@H](C)O)n1cnc2c(N)ncnc21,Potency,[9],"inconclusive: 8.91 µM [inhibitor, partial curve]"
same,Potency,[7],"inconclusive: 13.1 µM [inhibitor, single point]"
